Source: PMC4336329 (PLoS ONE, 2015)
The campaign covered roughly 310,000 compounds. About 2,200 (0.71%) showed an effect of 50% or more. Effects have a minus sign here. This is one part of the list.

Molecular target: human ether-à-go-go-related gene (hERG) potassium channel (human, UniProt Q12809)
Assay: primary screen, population patch clamp on CHO cells stably expressing hERG

Chain of human ether-à-go-go-related gene (hERG) potassium channel (Q12809 whole entry, looked up): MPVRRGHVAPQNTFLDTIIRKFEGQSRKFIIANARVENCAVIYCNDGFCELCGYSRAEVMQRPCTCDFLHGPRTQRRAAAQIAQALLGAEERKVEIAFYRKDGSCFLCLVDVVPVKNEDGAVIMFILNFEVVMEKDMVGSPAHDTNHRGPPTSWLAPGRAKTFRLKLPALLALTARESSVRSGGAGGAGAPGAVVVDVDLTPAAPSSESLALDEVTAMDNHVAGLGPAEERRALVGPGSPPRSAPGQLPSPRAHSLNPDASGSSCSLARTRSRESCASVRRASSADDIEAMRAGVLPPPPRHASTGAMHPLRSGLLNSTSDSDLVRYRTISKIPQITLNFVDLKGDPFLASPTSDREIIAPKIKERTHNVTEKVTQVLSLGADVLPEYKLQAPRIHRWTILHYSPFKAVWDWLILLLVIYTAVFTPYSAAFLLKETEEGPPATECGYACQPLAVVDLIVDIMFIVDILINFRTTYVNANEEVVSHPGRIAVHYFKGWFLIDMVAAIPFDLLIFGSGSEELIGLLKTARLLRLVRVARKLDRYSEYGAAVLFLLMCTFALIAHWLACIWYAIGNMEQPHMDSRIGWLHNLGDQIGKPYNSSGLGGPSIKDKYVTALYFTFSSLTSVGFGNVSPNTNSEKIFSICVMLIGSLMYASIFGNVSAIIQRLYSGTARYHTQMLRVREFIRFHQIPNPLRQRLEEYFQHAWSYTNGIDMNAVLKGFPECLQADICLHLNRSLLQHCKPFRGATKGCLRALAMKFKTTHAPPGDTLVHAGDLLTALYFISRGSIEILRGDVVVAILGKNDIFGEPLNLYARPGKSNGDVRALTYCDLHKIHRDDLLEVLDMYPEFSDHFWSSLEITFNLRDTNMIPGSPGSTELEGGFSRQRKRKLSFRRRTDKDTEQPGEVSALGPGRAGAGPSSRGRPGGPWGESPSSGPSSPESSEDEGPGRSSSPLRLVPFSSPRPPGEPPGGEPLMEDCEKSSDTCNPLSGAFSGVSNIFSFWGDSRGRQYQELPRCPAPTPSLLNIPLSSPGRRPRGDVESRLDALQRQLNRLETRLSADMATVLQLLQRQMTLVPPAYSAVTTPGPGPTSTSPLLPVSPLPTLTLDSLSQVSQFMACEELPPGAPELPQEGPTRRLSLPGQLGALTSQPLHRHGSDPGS

Compound	hERG current change (%, negative = inhibition) at 1uM [%]
CCC(C)NC(=O)c1ccc(CSCc2ccc(Cl)cc2)o1 (stereo not shown)	2.14
CCOc1ccc(NC(=O)COc2ccc(C(=O)NC3CCCc4ccccc43)cc2OC)cc1 (stereo not shown)	6.36
COc1cc(NC(=O)Cc2ccc(Cl)cc2)ccc1NC(=O)c1ccco1	4.88
O=C(CCCC(=O)N(CC(=O)NC1CCCC1)Cc1ccc(F)cc1)Nc1ccccn1	-3.34
COc1cc(C2SCC(=O)N2Cc2ccccc2)cc(OC)c1OC (stereo not shown)	12.6
N#C/C(=C\c1ccc(OCC(N)=O)cc1)c1ccccc1	8.8
CC(=NC1CC1)C1=C(O)c2ccccc2C1=O	23.9
Cc1cc(Cl)c2oc(C(=O)N3CCN(c4ccncc4)CC3)c(C)c2c1	-83.6
CCC(O)(C(=O)Nc1ccccc1C(F)(F)F)c1ccccc1OC (stereo not shown)	10.8
Cc1ccc(C(=O)NNC(=O)C(C)Oc2ccc3ccccc3c2)o1 (stereo not shown)	16.4
O=C(CCCCn1c(=O)[nH]c2ccccc2c1=O)N1CCN(c2cccc(C(F)(F)F)c2)CC1	3.42
O=C(CSCc1nc2ccccc2[nH]1)Nc1ccc(Oc2ccccc2)cc1	8.76
NC(=O)[C@H]1CC2(CC(c3cccc(NC(=O)COc4ccc(Cl)cc4)c3)=NO2)CN1C(=O)C(c1ccccc1)c1ccccc1 (stereo partly shown)	13.7
Cc1cccc(-c2noc(-c3ccoc3C)n2)c1	4.61
O=C(CSc1nncs1)Nc1ccc2c(c1)OCO2	7.78
Clc1ccc(N=c2ssnc2Cl)cc1	14.7
N#CCC1c2ccccc2CCN1C(=O)Nc1ccc(Cl)cc1 (stereo not shown)	1.25
CCOC(=O)C1=C(CS(=O)(=O)c2ccccc2)NC(=O)NC1c1ccccc1OC (stereo not shown)	11.5
Cc1ccc(-n2c(CSc3nc(C)cc(C)n3)nnc2SCC(=O)N2CCCC2)cc1	9.42
CCN(CC(=O)Nc1ccccc1-c1ccccc1)Cc1nc2ccccc2c(=O)[nH]1	2.63
CC1CC2C3CCC4=CC(=O)C=CC4(C)C3(F)C(O)CC2(C)C1(O)C(=O)CO (stereo not shown)	12.2
CC(=O)c1c(C)[nH]c(C(=O)Nc2ccc(Cl)cc2F)c1C	9.69

Compound	hERG current change (%, negative = inhibition) at 1uM [%]
COc1cc(OC)cc(C(=O)N[C@H](C(=O)OCC(=O)Nc2ccc(F)c(F)c2)C(C)C)c1	12.1
CCOc1cc(NC(=O)CCl)c(OCC)cc1NC(=O)CCl	14.1
COC(=O)C1=C(c2cccc(OCc3ccccc3)c2)C[C@@H]2CC[C@H]1N2C(=O)NCc1cc(C)oc1C(F)(F)F	10.5
CCSC1=C(C#N)C2(CCCCC2)C(C#N)=C(N)N1	9.78
CCOC(=O)C1CCN(S(=O)(=O)c2cc(F)ccc2OC)CC1	8.83
Cc1cccc(C2c3[nH]c4ccccc4c3CCN2C(=O)c2cc3c([nH]c2=O)CCCC3)n1 (stereo not shown)	4.42
COC(=O)C1=C(C)Nc2ncnn2C1c1ccccn1 (stereo not shown)	1.41
COc1ccc2[nH]c3c(c2c1)[C@@H]1CCN2C(=O)CCC[C@H](C3)[C@H]12	-15
Cc1cc(S(=O)(=O)N(C)CCc2ccccc2)ccc1-n1cnnn1	1.09
COc1ccc(C(=O)Nc2cccc3c2CCCC3)cc1	15
COCCCNC(=O)C1CC(=O)N(CCc2ccc(F)cc2)C1 (stereo not shown)	8.14
Cn1cccc1C(=O)OCC(=O)c1cc2ccccc2o1	11.3
S=c1[nH]nc(C2CCCCC2)n1/N=C/c1ccc(Cl)cc1	8.99
CCn1c(O)c(N=NC2=NC(=O)CS2)c2cc(C)ccc21	9.35
CCn1ccc(C(=O)Nc2c(C)nn(Cc3c(F)c(F)c(F)c(F)c3F)c2C)n1	15.4
CC(=O)N1CCCc2cc(S(=O)(=O)CCC(=O)Nc3cccc(C)c3C)ccc21	13.8
Cc1sc(NC(=O)C2CSC3(C)CCC(=O)N23)nc1-c1ccccc1 (stereo not shown)	3.27
CCCc1nnc(NC(=O)c2cccs2)s1	21.5
CCn1cc(C(=S)N2CCC(C(N)=O)CC2)c2ccccc21	6.71
O=C(COc1ccccc1-c1ccccc1)c1ccccc1	4.72
Oc1c(CN2CCN(c3ccccn3)CC2)cc(Cl)c2cccnc12	6.67
O=S(=O)(c1ccc(SCc2cccc(Cl)c2)nc1)N1CCCC1	0.329

Compound	hERG current change (%, negative = inhibition) at 1uM [%]
CC(=O)Nc1ccc(S(=O)(=O)N2CCN(C(=O)C3COc4ccccc4O3)CC2)cc1 (stereo not shown)	9.27
COCCNC(=O)C(c1cccc(OC)c1)N(Cc1cccs1)C(=O)Cn1nnc2ccccc21 (stereo not shown)	12.4
CCOC(=O)CN1C(=O)CC(c2ccccc2)C1=O (stereo not shown)	6.6
COc1ccc(NS(=O)(=O)c2ccc(NC(=S)NC(=O)/C=C/c3ccc(C)cc3)cc2)nn1	9.4
Cc1cccc(-c2nc3ccccc3c(=O)n2NC(=O)c2cccs2)c1	9.27
COc1ccc(Cl)cc1S(=O)(=O)N1CCN(C(=O)COc2ccccc2)CC1	1.31
CCOc1cc(C2NC(=O)NC(O)(C(F)(F)F)C2C(=O)c2ccc(OC)cc2)ccc1O (stereo not shown)	5.27
CCCCCC/C(=N\NS(C)(=O)=O)c1ccccc1	11.9
O=C(c1ccc2c(=O)n(Cc3ccco3)c(=S)[nH]c2c1)N1CCN(c2ccccc2)CC1	13.8
O=C(/C=C/c1ccc([N+](=O)[O-])cc1)Nc1cccnc1	-31.4
N#C/C(=C\c1ccccc1OCC(=O)O)c1nc2ccccc2[nH]1	5.93
COCCCn1c(C)nnc1SCC(=O)Nc1ccc(C(C)=O)cc1	13
COc1ccc(CN(C(=O)c2oc3ccccc3c2C)C2CCS(=O)(=O)C2)cc1OC (stereo not shown)	1.51
C=CCn1c(Cc2ccc(OC)cc2)nnc1SCC(=O)c1cccc([N+](=O)[O-])c1	0.577
CCOc1cccc(OCCCCn2cnc3ccccc3c2=O)c1	11.4
Cc1cc(SCC(=O)Nc2ncc(Cl)cc2Cl)nc2ccccc12	9.1
O=C(NN=C1C2CC3CC(C2)CC1C3)c1ccncc1	-0.112
O=C(NCCN1Cc2ccccc2C1=O)c1cccs1	7.4
O=C(NC(=S)Nc1c(F)cc(F)cc1Br)c1ccc2c(c1)OCCO2	19.5
C=CCn1c(-c2ccc(N)cc2)nc2ccccc21	11.8
Cc1ccccc1NNC(=O)C(=O)NNc1ccccc1C	10.7
O=c1c2ccccc2nc(Cc2cccc([N+](=O)[O-])c2)n1-c1ccc(O)cc1	4.44

Compound	hERG current change (%, negative = inhibition) at 1uM [%]
CC1CCN(c2nc(N(C)c3ccccc3)nc(N)c2[N+](=O)[O-])CC1	10
CCCCc1ccc(NC(=O)CC(C)=O)cc1	-13.1
CCCCn1c(N)c(N(CC)C(=O)c2cc(S(=O)(=O)N3CCCCCC3)ccc2OC)c(=O)[nH]c1=O	5.44
O=C(Nc1cnc2sc3c(n2c1=O)CCCC3)c1ccc(F)cc1	4.4
CNC(=O)Nc1ccccc1C(=O)NCc1ccccc1	2.19
COc1ccc(S(=O)(=O)Nc2cc(C)nn2-c2ccccc2)cc1	10.1
Cc1c2cn[nH]c(=O)c2c(C)n1-c1ccccc1	15.3
COCc1c(C(=O)N/N=C(/C)c2ccc(OCc3ccccc3)cc2)nnn1-c1nonc1N	9
COc1cc(C(c2c(C)[nH][nH]c2=O)c2c(C)[nH][nH]c2=O)cc(Cl)c1O	13.3
COC(=O)C1=C(c2ccc(OC)c(OC)c2)C[C@@H]2CC[C@H]1N2C(=O)N1CCCC1	13.6
COc1ccc(S(=O)(=O)N(C)CC(=O)Nc2ccc(F)cc2)cc1	9.66
CC1CCN(CCOCCSc2ccc(Cl)cc2)CC1.O=C(O)C(=O)O	-19.3
O=C(CNC(=O)c1ccc(Br)cc1)OCC(=O)c1ccccc1	6.37
CCC(C)(C)NC(=O)C(c1ccc(C)cc1)N(CC1CCCO1)C(=O)c1csnn1 (stereo not shown)	11.6
CC(C)(C)C1CCc2c(C(=O)N/N=C/c3cccs3)csc2C1 (stereo not shown)	-2.06
Cc1cc(/C=C2\C(=O)NC(=S)N(C)C2=O)c(C)n1C1CCCCC1	10.3
O=C(CN1CCCc2ccccc21)Nc1ccccc1[N+](=O)[O-]	22.7
c1cncc(-c2nc(N3CCCCCC3)c3ccccc3n2)c1	-42.8
CCn1nc(C(=O)N2CCN(Cc3ccc4c(c3)OCO4)CC2)c2ccccc2c1=O	-33.2
CCCN(Cc1nnc(-c2ccccc2Cl)o1)C(=O)COc1ccc(Cl)cc1	-20.7
N#CC(C#N)=Cc1ccc(-c2ccccc2)o1	3.25
O=C1C(c2ccc(F)cc2)N(CC2COc3ccccc3O2)C(=O)CN1C1CCCCC1 (stereo not shown)	-17.8
